Consider 89 compounds from PubChem BioAssay AID463173 (ICCB-Longwood Screening Facility, Harvard Medical School, 2010).

Hit rate of the full screen: of about 52,000 compounds, about 1,700 (3.3%) were called active. Cut-off read from the data, not from the text of the source: active = survival mostly below about 52% (no sharp cut-off); inactive = mostly above about 56%. The list shows a part of the results.

For this assay, the system named is Wild type. Briefly: growth inhibition of S. aureus wild type versus tarO mutant, primary screen, teichoic acid synthesis inhibitors, RN4220, OD600 (AID 463173). To be noted: S. aureus RN4220 wild type/DeltatarO growth, OD600, 18 h, hits give low values, screened at 18.75 µg/mL (by protocol).
On to `COc1ccc(NC(=O)/C(C#N)=C/c2ccc(C)o2)cc1`, for which the survival was inactive: 73%.
The result for `CC(C)(C)OC(=O)N1CCC(c2c(C(=O)Nc3ccc4c(c3)OCO4)cnn2-c2ccc(F)cc2F)CC1` reads inactive: 82%; that for `Cc1ccc(CNC(=O)C(=O)NCC(c2cccs2)S(=O)(=O)c2cccs2)cc1` (centres undefined), inactive: 68%; that for `CC1CCCN(c2ncnc3c2nc2n3CCCCC2)C1` (centres undefined), inactive: 83%.
For `CN(C)c1ccc(CNc2nc(-c3ccco3)nn2S(C)(=O)=O)cc1` the value was inactive: 84%; for `CCC1CCCCN1C(=O)c1sc2nc(C)cc(C)c2c1N` (centres undefined), inactive: 109%; for `CCOC(=O)c1ccc(NC(=O)c2cnc(N3CCCC3)nc2C)cc1`, inactive: 71%.
For `CCSc1nc2c([nH]c3ccccc32)c(=O)n1-c1ccc(OC)cc1` the value was inactive: 64%; for `O=C(O)CCCC(=O)N1CCc2cc(S(=O)(=O)NCc3ccccc3)ccc21`, inactive: 98%.
Consider `Cc1cccc(NC(=O)CCNS(=O)(=O)c2ccc3c(c2)CCCC(=O)N3)c1C`, for which the survival is inactive: 80%.
For `CCOC(=O)c1[nH]c2c(c1Cc1ccccc1)C(=O)CC(c1ccc(OC)cc1)C2` (centres undefined) the value was inactive: 94%.
For `Cc1ccccc1Cn1c(=O)n(CCCCC(=O)NCCc2ccccc2)c(=O)c2ccccc21` the value was inactive: 103%; for `CCc1ccc(NC(=O)CSC2=Nc3ccccc3C3=NC(CC(=O)NCc4ccc5c(c4)OCO5)C(=O)N23)cc1` (centres undefined), inactive: 153%; for `CCCC(=O)Nc1ccc(NC(=O)c2sc3ccccc3c2Cl)cc1`, inactive: 128%.
For `CCc1ccc2nc(N(Cc3cccnc3)C(=O)c3cccs3)sc2c1` the value was inactive: 127%.
Consider `CCn1c(SCC(=O)Nc2nc(C)cs2)nnc1C(C)Oc1ccccc1` (centres undefined), for which the survival was inactive: 82%.
The result for `COCCn1c(SCC(=O)c2ccccc2)nc2cc(C(=O)NC3CCCC3)ccc2c1=O` reads inactive: 76%.
For the compound `COc1ccc(NC(=O)CN(c2cccc(C)c2C)S(=O)(=O)c2ccccc2)cc1OC`, the survival is inactive: 72%.
For `CCOC(=O)CSC1=Nc2ccccc2C2=NC(CCC(=O)NCc3ccccc3)C(=O)N12` (centres undefined) the value was inactive: 73%.
For `CCc1ccc2[nH]c3nc(SCC(=O)OC(C)C)nnc3c2c1` the value was inactive: 107%; for `COc1ccc(C(=O)N2CCN(C(=O)COc3ccc(Br)cc3)CC2)cc1OC`, inactive: 80%; for `Cc1cc2c(cc1C)C(c1cccc(OC(C)C)c1)CC(=O)N2` (centres undefined), inactive: 82%.
Consider `CCCCN(C)CCCNC(=O)Cn1nc(CC)n2c(cc3sc(C)cc32)c1=O`, for which the survival is inactive: 84%.
For `CC1CN(C(=O)N2CCC(C(=O)NCCC3=CCCCC3)CC2)c2ccccc2O1` (centres undefined) the value was inactive: 110%.
The result for `COc1cc2c(=O)c(S(=O)(=O)c3ccc(C)cc3)cn(Cc3cccc(C)c3)c2cc1OC` reads inactive: 101%; that for `O=C(CSc1nnc(-c2cccs2)o1)Oc1ccc(Cl)cc1`, inactive: 89%; that for `CCCCNC(=O)C1CCCN(c2nnc(C)c3c(C)n(-c4ccc(Cl)cc4)nc23)C1` (centres undefined), inactive: 73%.
In the case of `CC(=O)N1CCN(c2ccc(NC(=O)COc3ccc(Cl)c(C)c3)cc2)CC1`, the survival is inactive: 106%.
For `CSc1cccc(NC(=O)C2CCN(S(=O)(=O)c3ccc4[nH]c(=O)ccc4c3)CC2)c1` the value was inactive: 101%; for `CC(=O)c1ccc(NC(=O)CSc2nccn2Cc2ccco2)cc1`, inactive: 72%; for `CC(C)c1ccc(S(=O)(=O)Nc2ccc(O)c(Sc3nc4ccccc4s3)c2)cc1`, active: 0%.
For `CCOC(=O)C1(C)C=C(Nc2ccc(C)cc2)C(=O)N1c1ccccc1` (centres undefined), the survival is inactive: 77%.
Consider `CCN(CC)CCN(C(=O)c1ccc(C(=O)OC)cc1)c1nc2ccc(Cl)cc2s1`, for which the survival is active: -6%.
The result for `COc1ccc(N(CC(O)CN2CCCC2)S(=O)(=O)c2ccccc2)cc1` (centres undefined) reads inactive: 125%; that for `CCOc1ccccc1NC(=O)c1ccc2c(c1)CCCN2S(C)(=O)=O`, inactive: 84%; that for `COCCNc1cc(N2CCN(C3CCCCC3)CC2)c2noc3c2c1C(=O)c1ccccc1-3`, inactive: 76%.
For `COc1cccc(C(=O)N2CCC(c3nc4ccccc4s3)CC2)c1` the value was inactive: 97%; for `O=C(Nc1ccc2nn(-c3ccc(F)cc3)nc2c1)c1cccc2c(Cl)cccc12`, inactive: 139%; for `Cc1ccc(C(=O)Nc2nnc(SCc3cc(=O)c4c(C)ccc(C)c4[nH]3)s2)cc1`, inactive: 93%.
For `O=C(C1COc2ccccc2O1)N(Cc1cccnc1)c1nc2c(F)cc(F)cc2s1` (centres undefined) the value was inactive: 67%; for `O=C(NC1CCCC1)C(c1ccccc1)N(CC1CCCO1)C(=O)Cn1nnc2ccccc21` (centres undefined), inactive: 110%.
On to `Cc1ccc(Cl)cc1N1CCN(C(=O)c2c(C)oc3ncnc(N4CCOCC4)c23)CC1`, for which the survival is inactive: 69%.
The result for `COc1cccc(C(=O)N2CCC(N3CCN(Cc4ccc(F)cc4)C(=O)C3=O)CC2)c1` reads inactive: 72%; that for `COC(=O)CSc1nnc(COc2ccc(C(C)C)cc2)o1`, inactive: 110%; that for `CCOc1ccccc1NC(=O)c1c(NCc2ccc(OC)c(OC)c2OC)sc2c1CCC(C)C2` (centres undefined), inactive: 153%.
`CCc1nnc(SCc2nc(-c3ccccc3F)oc2C)c2cc3sccc3n12`: the survival was inactive: 65%.
As to `COC(=O)c1cccc(Nc2c(-c3cc(Br)ccc3O)nc3nc[nH]n23)c1`, the survival is inactive: 88%.
For `Cc1ccc(OCC(=O)Nc2cccc(C(=O)OCc3cc(=O)n4cc(C)sc4n3)c2)cc1`, the survival was inactive: 87%.
Take `Cc1cccc(-c2noc(-c3ccc(NC4CCCC4)c([N+](=O)[O-])c3)n2)c1`: the survival was inactive: 82%.
For `COc1cc(OC)c(NC(=O)c2nc(-c3ccncc3)no2)cc1Cl` the value was inactive: 119%; for `COc1ccc(NC(=O)CSc2nnc(-c3nnn(-c4ccc(F)cc4)c3C)o2)cc1`, inactive: 75%; for `CCCCCNC(=O)C1CCC(Cn2c(=O)c3sccc3n(CC(=O)N3CCCC3)c2=O)CC1` (centres undefined), inactive: 91%.
For `O=C(CC1N=C2c3ccccc3N=C(SCc3cccc(Cl)c3)N2C1=O)NC1CCCCC1` (centres undefined) the value was inactive: 77%.
For `CCOCN(C(=O)Cn1c(C)nc2ccccc21)c1c(C)cccc1CC` the value was inactive: 124%.
`COc1ccc(OCc2nnc(SCC(=O)O)n2N)cc1`: the survival was inactive: 105%.
Take `Cc1cc2n(n1)CCCN2C(=O)Nc1ccccc1F`: the survival is inactive: 93%.
For `Cc1ccc(Cl)cc1-n1c(=O)cc(N2CCN(c3ccccc3)CC2)[nH]c1=O` the value was inactive: 90%; for `CCc1ccccc1NC(=O)CC(C)n1nc(C)cc1C` (centres undefined), inactive: 80%; for `CCOC(=O)c1c(S(=O)(=O)N2CCN(c3ccccc3OC)CC2)c(C)n(C)c1C`, inactive: 113%.
Take `COCCNC(=O)CN1CCC(NC(=O)c2ccco2)CC1`: the survival is inactive: 93%.
The result for `Cc1ccc(N2C(=O)c3n[nH]c(C)c3C2c2ccc(C(C)C)cc2)cc1` (centres undefined) reads inactive: 31%.
The result for `COc1cccc(C(=O)Nc2ccccc2-c2nc(-c3ccc(C)cc3)no2)c1` reads inactive: 47%; that for `OC1CCN(C(=S)Nc2ccccc2)CC1`, inactive: 108%; that for `c1ccc(N2CCN(c3ncnc4[nH]ncc34)CC2)cc1`, inactive: 73%.
For `CC(=O)c1cccc(NC(=O)c2sc3nc4c(cc3c2N)CCCC4)c1` the value was inactive: 82%; for `COc1cc(OC)c(NC(=O)NCc2ccc3c(c2)CCN3C(C)=O)cc1Cl`, inactive: 146%; for `O=C1CC(CSc2nnc(-c3ccc(Cl)cc3)n2-c2ccccc2)=NN1`, inactive: 109%.
Take `O=c1c2cc3c(cc2n(Cc2cccc(F)c2)c(=O)n1Cc1nc(-c2ccccc2)no1)OCO3`: the survival was inactive: 66%.
Regarding `CCc1ccc(NCc2cc3ccc(OC)cc3n(CC(=O)Nc3cccc(Cl)c3C)c2=O)cc1`, the survival is inactive: 88%.
The result for `COCCN1C(=O)c2[nH]nc(-c3c(C)cc(C)cc3O)c2C1c1cccc(O)c1` (centres undefined) reads inactive: 76%; that for `COc1ccc(S(=O)(=O)N(CCc2ccccc2)CC(=O)NCc2ccccc2)cc1OC`, inactive: 79%.
The result for `CCC(C(=O)OC(C)C)n1cnc2sc3c(c2c1=O)CCC(C)C3` (centres undefined) reads inactive: 71%.
For `Cc1ccc(Cl)cc1NC(=O)c1cccc(NC(=O)N2CCSc3ncccc32)c1` the value was inactive: 111%.
For the compound `CCOc1ccc(NC(=O)C2CCCN(c3nnc(-n4c(C)ccc4C)s3)C2)cc1` (centres undefined), the survival is inactive: 83%.
The result for `CCc1ccccc1N1C(=O)N(Cc2cccc(Cl)c2)c2ccccc2S1(=O)=O` reads inactive: 84%; that for `Cn1c(C(C(=O)NCC2CCCO2)N(Cc2ccc(F)cc2)C(=O)Cn2nnc3ccccc32)nc2ccccc21` (centres undefined), inactive: 113%; that for `CCCNS(=O)(=O)c1cc(-c2nnc3c4ccccc4c(C)nn23)ccc1OC`, inactive: 83%.
For `CC(C)(C)OC(=O)N1CCC(c2c(C(=O)N3CCN(C(=O)c4ccco4)CC3)cnn2-c2ccc(Cl)cc2)CC1` the value was inactive: 92%; for `Cc1c(NC(=O)CN2C(=O)c3cccc4cccc2c34)c(=O)n(-c2ccccc2)n1C`, inactive: 104%; for `CC(C)Cn1c(N2CCN(C(=O)Nc3ccc(Cl)cc3)CC2)nc2ccccc21`, inactive: 99%.
For `Cc1cccn2c(=O)c(C(=O)NCCc3ccc(Cl)cc3)cnc12` the value was inactive: 77%.
Consider `CC(=O)c1ccc(NC(=O)C2CCC(CNS(=O)(=O)c3cccc4nsnc34)CC2)cc1` (centres undefined), for which the survival is inactive: 127%.
The result for `Cc1ccc(C(=O)NCc2nnnn2-c2ccc(C)c(C)c2)cc1` reads inactive: 82%; that for `CCOC(=O)c1ccc(NC(=O)CSc2nnc(CNc3ccc(C)cc3C)n2Cc2ccco2)cc1`, inactive: 123%; that for `Cc1ccc(-c2nnc(Nc3ccc(Br)cc3)c3ccccc23)cc1S(=O)(=O)NCc1nc2ccccc2[nH]1`, inactive: 73%.
For `CC(C)OC(=O)CSc1nnc(CNc2ccc(F)cc2)n1C1CCCCC1` the value was inactive: 108%.
The result for `Cc1ccccc1CNC(=O)c1ccc(CN2CC(=O)N3CCCCC3C2=O)cc1` (centres undefined) reads inactive: 120%; that for `CCc1nnc2c3ccccc3nc(N3CCN(c4cc(C)ccc4C)CC3)n12`, inactive: 102%; that for `N#Cc1ccc(NC(=O)c2nc3ncccn3n2)cc1`, inactive: 106%.
